The values below come from article PMC4472343.

The chains behind the UniProt entries cited, without tags or fusion partners. Where a name states a change or a piece, a line headed by the entry shows the natural chain unless it says otherwise. Residues count along the entry.
UniProt P60615, residues 22-95: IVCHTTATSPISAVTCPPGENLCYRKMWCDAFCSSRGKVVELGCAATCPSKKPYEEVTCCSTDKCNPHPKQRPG
UniProt P49582, residues 23-502: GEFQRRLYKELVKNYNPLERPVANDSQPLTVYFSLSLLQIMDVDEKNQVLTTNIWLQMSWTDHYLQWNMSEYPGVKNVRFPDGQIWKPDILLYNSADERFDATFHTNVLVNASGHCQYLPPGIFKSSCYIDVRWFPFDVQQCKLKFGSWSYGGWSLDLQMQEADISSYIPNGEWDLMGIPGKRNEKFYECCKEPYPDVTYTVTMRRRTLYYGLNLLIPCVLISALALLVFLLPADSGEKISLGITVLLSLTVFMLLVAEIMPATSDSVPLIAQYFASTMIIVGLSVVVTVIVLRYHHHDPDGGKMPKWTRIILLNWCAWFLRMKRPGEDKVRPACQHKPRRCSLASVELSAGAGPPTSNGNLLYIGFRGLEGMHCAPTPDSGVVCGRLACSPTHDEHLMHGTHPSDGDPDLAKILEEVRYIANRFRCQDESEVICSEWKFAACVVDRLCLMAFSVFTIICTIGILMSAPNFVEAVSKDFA
UniProt P36544, residues 23-502: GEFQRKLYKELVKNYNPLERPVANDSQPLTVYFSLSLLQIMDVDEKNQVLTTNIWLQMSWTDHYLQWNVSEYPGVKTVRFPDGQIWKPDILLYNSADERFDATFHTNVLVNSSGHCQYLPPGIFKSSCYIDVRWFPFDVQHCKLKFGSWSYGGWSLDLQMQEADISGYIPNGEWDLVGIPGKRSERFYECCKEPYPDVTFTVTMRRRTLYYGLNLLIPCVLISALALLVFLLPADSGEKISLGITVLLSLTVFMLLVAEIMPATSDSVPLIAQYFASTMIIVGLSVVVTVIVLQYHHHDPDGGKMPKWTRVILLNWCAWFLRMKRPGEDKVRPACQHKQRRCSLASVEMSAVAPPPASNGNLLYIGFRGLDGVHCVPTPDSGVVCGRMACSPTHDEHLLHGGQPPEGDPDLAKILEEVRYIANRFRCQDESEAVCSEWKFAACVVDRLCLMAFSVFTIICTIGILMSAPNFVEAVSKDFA
UniProt P43681, residues 27-627: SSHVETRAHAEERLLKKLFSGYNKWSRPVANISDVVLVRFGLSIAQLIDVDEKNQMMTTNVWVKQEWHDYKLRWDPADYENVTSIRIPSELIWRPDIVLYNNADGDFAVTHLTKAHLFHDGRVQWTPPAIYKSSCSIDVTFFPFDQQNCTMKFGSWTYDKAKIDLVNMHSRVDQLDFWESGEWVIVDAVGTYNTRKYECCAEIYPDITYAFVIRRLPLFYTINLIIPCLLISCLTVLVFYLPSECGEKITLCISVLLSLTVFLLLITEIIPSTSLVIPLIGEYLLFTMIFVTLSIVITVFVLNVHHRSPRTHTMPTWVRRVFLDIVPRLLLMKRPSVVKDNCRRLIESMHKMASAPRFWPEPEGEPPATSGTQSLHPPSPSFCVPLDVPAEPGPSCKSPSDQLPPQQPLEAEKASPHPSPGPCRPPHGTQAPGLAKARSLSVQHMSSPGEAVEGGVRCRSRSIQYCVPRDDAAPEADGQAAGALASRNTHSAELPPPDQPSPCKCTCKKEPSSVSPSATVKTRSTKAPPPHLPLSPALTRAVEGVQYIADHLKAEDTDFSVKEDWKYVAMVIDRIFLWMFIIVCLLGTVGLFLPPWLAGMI
UniProt O70174, residues 31-629: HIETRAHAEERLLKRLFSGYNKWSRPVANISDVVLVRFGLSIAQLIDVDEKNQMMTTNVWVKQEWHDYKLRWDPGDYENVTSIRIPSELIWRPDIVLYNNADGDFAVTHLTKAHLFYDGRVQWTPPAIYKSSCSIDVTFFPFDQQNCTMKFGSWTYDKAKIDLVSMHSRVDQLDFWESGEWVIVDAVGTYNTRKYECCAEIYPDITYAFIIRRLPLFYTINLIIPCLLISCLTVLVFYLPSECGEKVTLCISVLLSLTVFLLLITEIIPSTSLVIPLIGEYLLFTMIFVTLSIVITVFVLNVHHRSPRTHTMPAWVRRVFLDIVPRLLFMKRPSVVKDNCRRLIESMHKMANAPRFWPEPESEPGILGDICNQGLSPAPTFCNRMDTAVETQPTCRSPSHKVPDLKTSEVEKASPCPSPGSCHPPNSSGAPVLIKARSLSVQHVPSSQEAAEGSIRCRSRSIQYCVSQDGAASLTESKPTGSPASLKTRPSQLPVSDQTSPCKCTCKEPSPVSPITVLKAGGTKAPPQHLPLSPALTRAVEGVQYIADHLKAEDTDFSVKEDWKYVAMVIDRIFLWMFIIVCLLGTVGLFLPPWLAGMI
UniProt P17787, residues 26-502: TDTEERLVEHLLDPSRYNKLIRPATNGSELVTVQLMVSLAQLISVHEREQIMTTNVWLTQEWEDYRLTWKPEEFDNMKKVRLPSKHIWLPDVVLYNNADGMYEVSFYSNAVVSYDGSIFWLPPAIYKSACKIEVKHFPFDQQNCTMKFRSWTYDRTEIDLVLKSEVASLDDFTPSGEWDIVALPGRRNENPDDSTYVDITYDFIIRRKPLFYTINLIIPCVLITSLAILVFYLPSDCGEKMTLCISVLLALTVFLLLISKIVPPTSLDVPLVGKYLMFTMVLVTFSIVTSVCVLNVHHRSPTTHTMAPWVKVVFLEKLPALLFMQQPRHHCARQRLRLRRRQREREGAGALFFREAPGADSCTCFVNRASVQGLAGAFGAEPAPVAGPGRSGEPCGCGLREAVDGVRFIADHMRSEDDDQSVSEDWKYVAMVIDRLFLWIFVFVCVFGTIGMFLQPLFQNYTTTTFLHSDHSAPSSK
UniProt Q9ERK7: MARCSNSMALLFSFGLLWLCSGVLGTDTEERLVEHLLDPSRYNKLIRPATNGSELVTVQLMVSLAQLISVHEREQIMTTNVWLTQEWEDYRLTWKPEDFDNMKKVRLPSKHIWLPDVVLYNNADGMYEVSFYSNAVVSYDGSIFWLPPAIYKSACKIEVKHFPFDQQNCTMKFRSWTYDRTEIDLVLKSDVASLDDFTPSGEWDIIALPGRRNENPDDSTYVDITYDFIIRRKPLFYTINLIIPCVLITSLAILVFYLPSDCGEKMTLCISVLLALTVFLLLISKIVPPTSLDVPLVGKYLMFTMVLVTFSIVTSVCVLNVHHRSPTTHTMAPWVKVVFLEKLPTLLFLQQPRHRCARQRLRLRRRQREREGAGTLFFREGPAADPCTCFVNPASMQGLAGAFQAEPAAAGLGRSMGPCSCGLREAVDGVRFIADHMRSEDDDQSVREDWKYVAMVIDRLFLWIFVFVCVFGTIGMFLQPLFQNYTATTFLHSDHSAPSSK

These are yes or no findings as the source states them, for the method shown. Binding seen in cells or lysates may run through a third protein. Some results given as binding are weak or reduced against the parent protein; the word gives no strength.

One experiment deals with α-bungarotoxin (UniProt P60615). Kind of experiment: pull-down; only the target purified.
For experiment [1], the target named is α7 nicotinic acetylcholine receptor subunit (mouse) (mouse (endogenous in cortex)) (UniProt P49582). Nature of the experiment: pull-down; α7-containing receptors isolated on α-Bgt beads from 2% Triton X-100 extract of cortex from wild-type mice; co-purified subunits detected by Western blot; washes with 1 M NaCl.
The target in experiment [2] is α7 nicotinic acetylcholine receptor subunit (human) (human (endogenous in temporal cortex)) (UniProt P36544). Kind of experiment: pull-down; α7-containing receptors isolated on α-Bgt beads from 2% Triton X-100 extract of human temporal cortex (two biopsies); co-purified subunits detected by Western blot. Background: A western blot detects proteins with antibodies after separation by electrophoresis.

Experiment [3] addresses α7 nicotinic acetylcholine receptor subunit (mouse) (mouse (endogenous in cortex)) (UniProt P49582). Kind of experiment: condition: only α7 and β2 from separate homogenates (β2-/- and α7-/- mice) mixed 1:1 after homogenisation; pull-down; α-Bgt beads with a 1:1 mixture of cortical homogenates from α7-/- and β2-/- mice (double the total protein); Western blot.

“α4 nicotinic acetylcholine receptor subunit (human) (from UniProt P43681 27-627)”: in the experiment with α-bungarotoxin, the binding result is listed as “no binding”.
Regarding “α4 nicotinic acetylcholine receptor subunit (mouse) (from UniProt O70174 31-629)”, the binding result (in experiment [1]; in the experiment with α-bungarotoxin) was “no binding” each time.
For the substance “α7 nicotinic acetylcholine receptor subunit (human) (from UniProt P36544 23-502)”, in the experiment with α-bungarotoxin, the binding entry is listed as “binds”.
For the substance “α7 nicotinic acetylcholine receptor subunit (mouse) (from UniProt P49582 23-502)”, in the experiment with α-bungarotoxin, the binding result is “binds”.
Consider “β2 nicotinic acetylcholine receptor subunit (human) (from UniProt P17787 26-502)”, for which the binding result in experiment [2] is “binds”.
For the substance “β2 nicotinic acetylcholine receptor subunit (mouse) (from UniProt Q9ERK7 26-501)”, the binding entry is on record as “no binding” in experiment [3] and “binds” in experiment [1].
